Experimental data: patent publication US20210206829A1 (published 2021)

Molecular target: human CD47 (human, UniProt Q08722)
Assay: flow cytometry on Jurkat cells

- Kd: 2.3 nM
B1: TTI-621 (Fc fusion)
chain: not shown
